# Measurements reported in article PMC4336329 (PLoS ONE, 2015).
# Among all 310,000 compounds or so, about 14,000 (4.5%) showed an effect of 50% or more. The effect is printed as a negative number. The list shows a part of the results.
# Biological target: human ether-à-go-go-related gene (hERG) potassium channel (human, UniProt Q12809)
# Assay: primary screen, population patch clamp on CHO cells stably expressing hERG
# 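Further: peak tail current of the secondary pulse compared with the same well before compound.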
# Chain of human ether-à-go-go-related gene (hERG) potassium channel (Q12809 whole entry, looked up): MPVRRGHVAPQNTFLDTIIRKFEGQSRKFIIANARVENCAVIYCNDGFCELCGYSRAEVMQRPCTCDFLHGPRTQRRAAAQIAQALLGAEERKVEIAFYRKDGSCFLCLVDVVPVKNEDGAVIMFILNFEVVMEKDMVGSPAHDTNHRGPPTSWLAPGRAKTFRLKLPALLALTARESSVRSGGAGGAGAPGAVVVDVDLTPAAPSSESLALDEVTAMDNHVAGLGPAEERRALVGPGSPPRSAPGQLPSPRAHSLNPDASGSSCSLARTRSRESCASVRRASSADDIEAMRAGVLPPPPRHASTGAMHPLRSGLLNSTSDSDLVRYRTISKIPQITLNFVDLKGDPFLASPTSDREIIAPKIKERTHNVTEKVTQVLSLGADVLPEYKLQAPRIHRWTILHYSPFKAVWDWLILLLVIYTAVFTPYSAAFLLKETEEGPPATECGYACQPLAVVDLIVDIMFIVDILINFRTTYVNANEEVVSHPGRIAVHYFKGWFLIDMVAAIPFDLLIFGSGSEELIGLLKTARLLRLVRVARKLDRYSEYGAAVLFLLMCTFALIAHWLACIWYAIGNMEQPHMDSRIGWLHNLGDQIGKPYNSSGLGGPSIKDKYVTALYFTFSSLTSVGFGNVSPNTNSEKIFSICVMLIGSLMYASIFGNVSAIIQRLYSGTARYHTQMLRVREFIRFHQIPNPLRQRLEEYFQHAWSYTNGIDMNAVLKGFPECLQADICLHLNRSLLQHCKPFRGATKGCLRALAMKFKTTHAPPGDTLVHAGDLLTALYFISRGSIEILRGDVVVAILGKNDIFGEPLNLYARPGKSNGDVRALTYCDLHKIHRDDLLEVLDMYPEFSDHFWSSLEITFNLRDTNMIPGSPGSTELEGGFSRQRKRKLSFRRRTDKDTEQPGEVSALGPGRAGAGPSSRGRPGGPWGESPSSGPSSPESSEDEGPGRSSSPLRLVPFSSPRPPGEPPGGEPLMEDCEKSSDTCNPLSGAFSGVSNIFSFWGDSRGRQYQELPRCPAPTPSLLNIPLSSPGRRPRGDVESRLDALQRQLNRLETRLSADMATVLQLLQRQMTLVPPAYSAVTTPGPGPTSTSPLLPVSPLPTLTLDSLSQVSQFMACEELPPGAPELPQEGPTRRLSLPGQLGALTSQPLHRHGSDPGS
row,Compound,"hERG current change (%, negative = inhibition) at 10uM [%]"
1,Cc1ccc(N(NC(=O)C(C)(C)O)C(=O)c2ccccc2)cc1C,17.3
2,Nc1c(Br)cc(Br)cc1CNC1CCC(O)CC1 (stereo not shown),-12.8
3,O=[N+]([O-])c1ccc([N+](=O)[O-])c(Nc2ccc(N3CCOCC3)cc2)c1,36.1
4,Cc1ccc(CNc2nc3ccccc3s2)s1,-18.2
5,CC1(C)C(=O)Nc2ccccc2N1C(=O)CN1C(=O)c2ccccc2C1=O,-3.12
6,CCOC(=O)c1cc(C#N)c(Oc2ccccc2)nc1-c1ccccc1,0.078
7,Cc1nnc(N(C(=O)c2cnccn2)c2ccccc2)s1,21.3
8,O=[N+]([O-])c1ccccc1NC1CCN(Cc2ccccc2)CC1,-64.4
9,O=C1C(Cl)=C(NCC2CCCO2)C(=O)N1CCc1ccccc1 (stereo not shown),-30.7
10,Fc1ccc(/C=N/N2CCCCC2)c(F)c1,9.5
11,O=C(Cn1nnc(-c2ccccc2)n1)NCc1cccs1,12.5
12,COc1ccc(NC(=O)C(=O)N2N=C(C(C)C)CC2(O)C(F)(F)F)cc1 (stereo not shown),5.75
13,COc1ccc(N2CC(C(=O)Nc3ccc(S(=O)(=O)Nc4nccs4)cc3)CC2=O)cc1 (stereo not shown),24
14,CC(C)CCNC(=O)CCn1nc(-c2ccccc2)ccc1=O,-46.8
15,COc1cccc(C(C(=O)NC(C)(C)C)N(C(=O)CCC(=O)Nc2cc(C)on2)C(C)(C)C)c1OC (stereo not shown),-7.81
16,Cc1nn(C(C)C(=O)NC2CCCCCC2)c(=O)c2nn(-c3ccccc3)c(C)c12 (stereo not shown),1.8
17,Cc1ccccc1NS(=O)(=O)c1cc2c3c(c1)C(C)C(=O)N3CCC2 (stereo not shown),-2.55
18,Oc1ccc(/C=N/Nc2nc(-c3cccnc3)nc3ccccc23)c(O)c1,-2.97
19,CC(CNC(=O)c1ccccc1Cl)NC(=O)c1ccccc1Cl (stereo not shown),11.2
20,CCOCCCNC(c1ccccc1)c1ccncc1 (stereo not shown),14.5
21,Cn1nccc1C(=O)N1CCOCC1,5.59
22,CN(c1ccc(C(=O)NC2CC2)cc1)S(=O)(=O)c1ccccc1,-9.85
23,Cc1c(NC(=O)C(C)N2C(=O)NC3(CCC(C)CC3)C2=O)c(=O)n(-c2ccccc2)n1C (stereo not shown),18.9

row,Compound,"hERG current change (%, negative = inhibition) at 10uM [%]"
1,CC(Cc1ccccc1)C(=O)Nc1ccc(Br)cc1 (stereo not shown),-1.21
2,Cc1ccc(NC(=O)CN2C(=O)S/C(=C\c3ccc(OCC(=O)O)c(Br)c3)C2=O)cc1,23
3,CC(/C=C/c1ccccc1)=N/NC(=O)CCC(=O)Nc1ccccc1C,7.67
4,CCc1ccccc1Nc1nc2ccccc2n1C(C)C,8.91
5,Cc1nn(CCC(=O)NNC(=S)Nc2ccccc2)c(C)c1Br,14.2
6,COc1cc(/C=N\NC(=O)c2ccc(C)nc2)ccc1OC(=O)c1ccco1,-33.1
7,O=C(NCC1CC1(Cl)Cl)Nc1ccc(Cl)c(Cl)c1 (stereo not shown),8.32
8,Cc1cccc2cc(=O)[nH]c(C)c12,15.6
9,NC(=O)c1c(NC(=O)C2CCCO2)sc2c1CCC2 (stereo not shown),-11.2
10,CC(C)(SC(=S)N1CCCCCC1)C(=O)O,24.3
11,O=C(Nc1ccccc1)c1ccc2c(c1)OCCCO2,-10.7
12,COc1ccccc1CNC(=O)C1CCCN(c2cnccn2)C1 (stereo not shown),3.45
13,O=C(NCCc1ccccc1)C1(c2ccccc2)CCCC1,1.72
14,COc1ccc(Cl)c2sc(NC(=O)C3=COCCO3)nc12,7.86
15,CC(NC(=O)c1cccs1)c1ccc2c(c1)OCO2 (stereo not shown),-16.1
16,CC(=O)Nc1ccc2c(c1)C(=O)N(C1CCCCC1)C2=O,-1.04
17,CN(CCc1cnn(C)c1)C(=O)CCc1nnc(CCCc2ccccc2)o1,12.4
18,O=C(c1cc2ccccc2o1)N1CCN(Cc2ccc3c(c2)OCO3)CC1,-22.1
19,O=C(O)CN1CCN(Cc2ccc(F)cc2Cl)C1=O,-2.06
20,COc1cc(NC(=S)NC(=O)c2ccccc2C)ccc1NC(=O)c1cccs1,-1.24
21,Cn1nc(-c2ccccc2)cc1NS(=O)(=O)c1ccccc1,-5.88
22,CCNc1nc(SC(C(C)=O)C(C)=O)nc(N(C)C)n1,12.5
23,Cc1ccc(NS(=O)(=O)c2cccc(C(=O)NNC(=O)c3ccco3)c2)c(C)c1,-2.38
